Legend:
Assay in all cases: NMR titration; 1H-15N TROSY-HSQC (600 MHz) of isotope-labelled RhoA in complex with unlabelled PRG fragment; 0.2 to 0.3 mM protein, 200 mM MOPS/TRIS pH 7.5, 1 mM DTT, 25°C
Conditions in all cases: both partners purified
[1] = target: T1, PDZRhoGEF DH-PH tandem (PRG^712–1081) (human, UniProt O15085 712-1081)
T1 construct: full length is 1-1522; The His8 tag is called non-cleavable; Unlabelled in the spectra of labelled RhoA; also called isolated DH-PH tandem; source: E. coli BL21 (DE3) RIPL, purified (glutathione-Sepharose, rTEV cleavage, Ni-NTA); not shown: GST, N-terminal, cleaved; His8, C-terminal, kept
T1 sequence (looked up): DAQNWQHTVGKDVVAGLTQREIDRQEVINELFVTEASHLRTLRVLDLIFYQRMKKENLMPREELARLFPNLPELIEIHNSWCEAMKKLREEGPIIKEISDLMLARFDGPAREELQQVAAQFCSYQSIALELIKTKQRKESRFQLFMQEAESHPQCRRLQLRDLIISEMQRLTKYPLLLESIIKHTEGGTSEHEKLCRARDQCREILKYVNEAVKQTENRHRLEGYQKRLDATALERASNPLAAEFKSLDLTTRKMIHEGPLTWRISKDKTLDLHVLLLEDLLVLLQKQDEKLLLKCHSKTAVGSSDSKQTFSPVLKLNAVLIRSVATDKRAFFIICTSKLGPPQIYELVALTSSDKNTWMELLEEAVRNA

[2] = target: T2, PRG^4R: PRG^672–1081 with D706R, E708R, E710R, D712R (human, UniProt O15085 672-1081, D706R | E708R | E710R | D712R)
T2 construct: also called quadruple charge reversal mutant; source: E. coli BL21 (DE3) RIPL, purified (glutathione-Sepharose, rTEV cleavage, Ni-NTA); not shown: GST, N-terminal, cleaved; His8, C-terminal, kept
T2 sequence (looked up): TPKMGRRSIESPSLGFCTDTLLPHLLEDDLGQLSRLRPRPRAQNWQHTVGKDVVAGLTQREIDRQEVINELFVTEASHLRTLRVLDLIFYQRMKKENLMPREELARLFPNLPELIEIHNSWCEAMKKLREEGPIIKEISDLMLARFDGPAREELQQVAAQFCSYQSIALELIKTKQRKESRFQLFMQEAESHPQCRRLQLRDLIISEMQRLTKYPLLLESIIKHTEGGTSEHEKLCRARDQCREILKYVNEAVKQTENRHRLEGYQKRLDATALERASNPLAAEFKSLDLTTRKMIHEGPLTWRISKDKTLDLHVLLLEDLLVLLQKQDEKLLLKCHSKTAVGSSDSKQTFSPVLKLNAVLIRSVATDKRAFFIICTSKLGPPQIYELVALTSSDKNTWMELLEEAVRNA

[3] = target: T3, PDZRhoGEF fragment PRG^672–1081 (human, UniProt O15085 672-1081)
T3 construct: The His8 tag is called non-cleavable; source: E. coli BL21 (DE3) RIPL, purified (glutathione-Sepharose, rTEV cleavage, Ni-NTA); not shown: GST, N-terminal, cleaved; His8, C-terminal, kept
T3 sequence (looked up): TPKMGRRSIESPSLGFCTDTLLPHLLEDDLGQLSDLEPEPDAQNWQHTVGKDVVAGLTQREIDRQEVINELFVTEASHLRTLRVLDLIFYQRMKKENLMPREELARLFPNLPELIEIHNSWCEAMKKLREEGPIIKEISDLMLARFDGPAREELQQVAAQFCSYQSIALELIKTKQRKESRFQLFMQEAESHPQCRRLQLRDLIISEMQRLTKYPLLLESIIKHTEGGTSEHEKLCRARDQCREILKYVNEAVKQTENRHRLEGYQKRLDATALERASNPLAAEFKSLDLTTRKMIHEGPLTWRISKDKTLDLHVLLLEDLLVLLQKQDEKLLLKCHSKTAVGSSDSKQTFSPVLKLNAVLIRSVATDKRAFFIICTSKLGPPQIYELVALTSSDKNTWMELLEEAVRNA

- binding result [1]: binds
- binding result [2]: binds
- binding result [3]: binds
B1: human RhoA^F25N ([…]) (domain or fragment)
chain: not shown
notes: RhoA, human, […], with the F25N mutation; 2H,15N- or 15N-labelled for the NMR spectra of the complexes; GDP-preloaded in the exchange assay; also called recombinant RhoA ([…]); source: expression and purification as described previously [45]
